From PubChem BioAssay AID493208 (National Center for Advancing Translational Sciences (NCATS), 2011)
Among all 44,000 compounds or so, about 340 (0.77%) were called active. Not shown: some 5% with an inconclusive outcome. Calls follow the shape of the dose curve; as a rule, active = well fitted inhibition curve with a large enough effect; inconclusive = small, poorly fitted or top-dose-only effect; inactive = flat fitted curve, though single readings scatter. The list shows a part of the results.

Assay: Acumen qHTS Assay for Inhibitors of the mTORC1 Signaling Pathway in MEF (Tsc2-/-, p53-/-) Cells: Sytravon;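 also: plate controls were DMSO for no effect and rapamycin for full effect; nearly all actives have a fitted effect of over 50% in size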
Settings: phospho-rpS6 immunofluorescence/PI, 24 h; series mostly up to 38.3 µM; activity change, negative = inhibition: at the top concentration
Outline: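 Tsc2-/-, p53-/- MEFs (empty-vector stable line) in DMEM + 10% FBS were treated with compounds 24 h at 37 degree Celsius, fixed, and immunostained for phospho-rpS6 (Alexa-488) with propidium iodide counterstain. Laser-scanning cytometry gave % positive cells, normalized against 7.5 nM rapamycin and DMSO.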

Activity change, negative = inhibition, inactive:
COc1ccccc1-c1noc(CCCC(=O)Nc2cccc(C(F)(F)F)c2)n1 1.1%
O=C(CN1C(=O)C2(SCC(=O)N2c2cccc(Cl)c2)c2ccccc21)NCc1ccccc1 (configuration not stated) 2.57%
COc1ccc(-c2cn3nc(N4CCC(C(=O)Nc5cc(Cl)ccc5C)CC4)sc3n2)cc1 5.88%
COc1ccccc1-c1cc2nc(C)c(CCC(=O)NCCc3cccc(C)c3)c(C)n2n1 -0.0534%
O=C(CCCCCn1c(=O)c2sccc2n(CC(=O)Nc2cc(C(F)(F)F)ccc2Cl)c1=O)NCc1ccccc1Cl -2.21%
CCc1cccc(-n2c(=O)c3cccnc3n2CC(=O)NCc2ccc(C)cc2)c1 2.61%
Cc1ccc(NC(=O)Cn2cnc3onc(-c4ccc(F)cc4)c3c2=O)c(Cl)c1 -7.05%
Cc1ccc(NC(=O)c2cc3ccccn3n2)cc1F 0%
Cc1ccc(Cl)cc1N1CCN(C(=O)CSc2cc(=O)n(C)c3ccccc23)CC1 -8.1%
Cc1cc(C)c(NC(=O)Cn2c(=O)n(CCC(=O)NCc3ccccc3Cl)c(=O)c3sccc32)c(C)c1 1.36%
COc1ccc(C(=O)Nc2ccc3nc(SCC(=O)N(C)c4ccccc4)sc3c2)cc1 -1.95%
O=C(CSc1cn(CCNC(=O)c2cccc(C(F)(F)F)c2)c2ccccc12)Nc1ccc2c(c1)OCCO2 -10.2%
CC(C)(C)c1ccc2c(c1)N(CC(=O)NCCCN1CCN(c3ccccc3F)CC1)C(=O)CO2 -9.42%
CC(C)N(C(=O)Cn1cc(S(=O)(=O)Cc2ccc(Br)cc2)c2ccccc21)C(C)C -7.14%
COc1ccc(NC2=C(c3ccccc3)C(=O)c3ccccc32)cc1Cl -3.66%
CC1CCN(S(=O)(=O)c2ccc3c(c2)N(CC(=O)NCCCN2CCCCC2)C(=O)CS3)CC1 6.88%
Cc1ccc(CNC(=O)c2cc(-c3ccc(C)cc3)nc3n[nH]c(-c4cccc([N+](=O)[O-])c4)c23)cc1 0.304%
O=C(c1ccc(F)cc1)N1CCC(c2nc3ccccc3s2)CC1 -1.04%
CCOc1ccc(S(=O)(=O)NCCc2c(C)[nH]c3c(Cl)cccc23)cc1C 2.21%
Cc1c(C(=O)Nc2ccc(F)c(C(F)(F)F)c2)sc2nc(-c3ccccc3)cn12 0%
O=C(CCn1cccn1)Nc1ccc(Br)cc1F -11.1%
CCOC(=O)CSc1nc2ccc(NC(=O)c3cccc(F)c3)cc2s1 -0.506%
COc1cccc(NC(=O)CN(CCc2ccccc2)S(=O)(=O)c2ccc(Cl)cc2)c1 4.26%
Cc1nc2ccccc2n1CCc1nc2c3ccccc3nc(SCc3ccc(C#N)cc3)n2n1 -3.37%
O=c1c(NCc2cccs2)nccn1-c1ccc(F)cc1 -5.5%
CCOc1ccc(NS(=O)(=O)c2ccc3[nH]c4c(c3c2)CCCCC4)cc1 -0.433%
O=C(COCc1cc(-c2ccc(F)cc2)on1)Nc1cc(F)ccc1F 0.833%
O=S(=O)(NCc1nc2cccnc2n1Cc1ccccc1Cl)c1ccc2c(c1)CCCC2 -4%
Cc1cccc(-c2nc3c4ccccc4nc(NCCc4ccccc4)n3n2)c1 -2.36%
CCOc1ccccc1NS(=O)(=O)c1ccc2c(c1)oc(=O)n2C -11.3%
CCN(CC)CCCNC(=O)Cc1csc2nc(-c3ccc(Cl)cc3)cn12 -13%
CCc1cc2c(cc3c(=O)n(CCCC(=O)NCc4cccc(Cl)c4)ncn32)s1 0.684%
Cc1cccc(CCNC(=O)c2cc3c(=O)n(C)c4ccccc4c3n2C)c1 -11.1%
O=C(CN1C(=O)CCn2nc(-c3ccccc3)cc21)NCc1ccc(Cl)cc1 2.62%
Cc1cc2c(n1-c1ccc(C(=O)NCc3ccccc3Cl)cc1)CCCC2 -11.1%
COc1ccccc1N1CCN(C(=O)c2c(C)oc3ncn(C)c(=O)c23)CC1 2.87%
O=C(CCSCc1ccccc1Cl)NCc1ccc(F)cc1Cl -6.91%
CC(C)c1cnc2c(c1SCC(=O)NCc1ccccc1Cl)c(=O)n(C)c(=O)n2C -10.1%
O=C(c1ccc2c(c1)N(Cc1cccc(F)c1)C(=O)c1ccccc1S2)N1CCCC1 0.706%
COc1ccc(C(CC(=O)Nc2ccc(C(C)=O)cc2)N2Cc3ccccc3C2=O)cc1 (configuration not stated) -12.7%
Cc1cccc2c1-c1sc(C(=O)N(C)c3cccc(Cl)c3)cc1CO2 -11.2%
Cc1cccc(N2CCN(C(=O)c3noc4c3COc3ccc(C)cc3-4)CC2C)c1 (configuration not stated) 8.5%
COc1ccc(NC(=O)NC2COc3ccccc3C2)cc1Cl (configuration not stated) 3.09%
Cc1ccc(CN2C(=O)c3ccccc3CC2(C)C(=O)NC2CCCCC2)cc1 (configuration not stated) 6.5%
CSc1ccc(CCNC(=O)CCc2c(C)nc3ncnn3c2C)cc1 -12.1%
CCOc1ccccc1C(=O)NC1(C(F)(F)F)C(=O)Nc2c1c(=O)[nH]c(=O)n2-c1ccc(F)cc1 (configuration not stated) 9.74%
Cn1nnnc1SCCNCc1cc(Br)ccc1OCc1ccccc1Cl -15.8%
Cc1ccc(C(=O)Nc2cccc3cccnc23)cc1Cl -0.636%
COc1cccc(OC)c1C(=O)NCCc1csc(-c2ccc(Cl)cc2)n1 7.53%
CCOC(=O)c1c(Nc2ccc(OC)cc2)nnc(-c2ccccc2)c1-c1ccccc1 -11%
CCOc1ccc(NC(=O)COc2ccc(S(=O)(=O)NC3CCCCC3)cc2)cc1 -7.61%
CN1CCN(c2ncc3c(n2)CCN(Cc2ccc(Br)s2)C3)CC1 -15.3%
COc1ccc(-c2csc(=Nc3ccccc3)n2CCO)cc1F 1.35%
Cc1ccc(Cl)cc1Nc1nn2c(=O)c3ccc(C(=O)NCc4ccc(F)cc4)cc3nc2s1 -4.74%
Cc1cccn2c(=O)c(C(=O)NCc3cccc(F)c3)cnc12 0.13%
CCOc1ccc(CNC(=O)Cc2ccc(NC(=O)N3CCSc4ncccc43)cc2)cc1 -11.9%
Cc1cccc(-c2nc3scc(CCNS(=O)(=O)c4ccc5c(c4)OCCO5)n3n2)c1 0.0285%
CC(=O)c1ccc(N2CCN(C(=O)C3CCN(S(=O)(=O)c4cn(C)cn4)CC3)CC2)cc1 1.69%
Cn1c(=O)c2sccc2n2c(CCC(=O)NCc3ccc(Cl)cc3)nnc12 -0.503%
CCCOc1ccc(-c2nc(SCC(=O)c3ccc(Cl)cc3)n[nH]2)cc1 -8.4%
CCOC(=O)N1CCc2c(sc3c2c(=O)n(-c2ccc(Cl)cc2)c(=O)n3CC(C)C)C1 -2.16%
COc1ccc(Nc2c(-c3cccc(O)c3)nc3cnccn23)cc1 11%
